Results from PubChem BioAssay AID1346428 (National Center for Advancing Translational Sciences (NCATS), 2018).
Values joined by “and” are separate entries in the source; they are usually repeats but may differ in a detail not shown here. Equal entries are not always repeated. About 1,200 (2.5%) of roughly 48,000 compounds were called active. Another 2% or so got no clear call; they are omitted.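 How the source made its calls: active means activation of at least 60% and not above a set upper limit (about 1 call in 100 departs from these limits); inconclusive means activation of 40% to 60%, or above that upper limit; inactive means activation under 40%.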 This is one part of the list.

Biological target: Probable G-protein coupled receptor 32 (Homo sapiens) (UniProt O75388)
UniProt O75388, sequence (O75388 whole entry, looked up): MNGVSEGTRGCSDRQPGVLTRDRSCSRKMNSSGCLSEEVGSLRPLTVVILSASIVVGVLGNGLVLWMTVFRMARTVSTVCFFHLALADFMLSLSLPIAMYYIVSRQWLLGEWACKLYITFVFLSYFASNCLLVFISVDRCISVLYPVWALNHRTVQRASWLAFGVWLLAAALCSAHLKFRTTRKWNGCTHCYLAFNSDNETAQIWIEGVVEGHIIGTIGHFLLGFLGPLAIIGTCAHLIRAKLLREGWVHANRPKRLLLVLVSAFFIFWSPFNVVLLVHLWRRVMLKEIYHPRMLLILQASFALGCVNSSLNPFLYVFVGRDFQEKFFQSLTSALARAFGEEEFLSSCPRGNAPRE
Assay: qHTS for Agonists of Human Resolvin D1 Receptor DRV1; further: 0% is about no effect
Conditions: CHO-K1 GPR32 beta-arrestin PathHunter luminescence, 90 min; at 76.9 µM; active compounds read high; zero percent set by DMSO-only wells
Procedure, shortened: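 Cells are plated overnight, treated with compounds in DMSO for 90 minutes at 37 °C, and developed with PathHunter detection reagent for 1 hour before luminescence is read; signal reflects beta-arrestin binding to GPR32 in engineered CHO-K1 cells.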

activation, inactive:
CC1CCc2c(sc3nnn(Cc4ccccc4Cl)c(=O)c23)C1 (stereo not drawn) -6.24%
COc1ccccc1OCc1nc2ccccc2n1Cc1ccccc1 -13.4%
CCOc1ccccc1C1C(C(=O)Nc2ccccc2)=C(C)Nc2nc(-c3ccccc3)nn21 (stereo not drawn) 23.4%
CCCCn1c(SCC(=O)c2ccccc2)nc2sc3c(c2c1=O)CCCC3 13.6%
CCOC(=O)c1cc(C)n(CC2CCC(C(=O)Nc3cccc(C(C)=O)c3)CC2)c1C (stereo not drawn) -7.81%
CCOc1ccccc1CNCc1c(C(=O)O)n(Cc2ccccc2)c2cc(OC)ccc12 38.1%
Cc1ccc(S(=O)(=O)Nc2ccc(-c3ccc(N4CCCCCC4)nn3)cc2)c(C)c1 -2.05%
CCOc1ccccc1Oc1ncnc2c1oc1ccccc12 -10.6%
CC1CCC(NC(=O)c2ccc3c(c2)N(Cc2ccccc2F)C(=O)c2ccccc2S3(=O)=O)CC1 (stereo not drawn) -0.869%
COc1ccc(N2CCN(C(=O)c3cnc(N4CCOCC4)c4ccccc34)CC2)cc1 -1.44%
Cc1ccc(-c2nnc3c4ccccc4c(-c4ccccc4)nn23)cc1 -8.63%
CC(C)NC(=O)CSc1cn(CC(=O)N2CCCCCC2)c2ccccc12 -22.7%
CCOc1ccccc1NCc1nnc2n1CCCCC2 31.4%
Cc1ccc(NCc2cc3cc4c(cc3n(CC(=O)Nc3ccc(C)cc3)c2=O)OCCO4)cc1 -33.9%
Nc1c(C(=O)NCc2cccs2)nnn1CC(=O)Nc1cccc(F)c1 -6.23%
COC(=O)c1scc(-c2ccc(C)cc2)c1S(=O)(=O)N1CCN(c2ccc(F)cc2)CC1 -2.75%
O=C(NC1CCCCC1)c1ccc(CSc2nc3cccnc3n2Cc2cccc(F)c2)cc1 -10.9%
Cc1cc(C)cc(-n2ccn(CC(=O)c3ccc(F)cc3)c(=O)c2=O)c1 -8.29%
Cc1cc(C)c(S(=O)(=O)NCCc2sc3nc(-c4ccc(F)cc4)nn3c2C)c(C)c1 -24.5%
CCC1CCCCN1C(=O)c1c[nH]c2ccc(S(=O)(=O)Nc3cccc(OC)c3)cc2c1=O (stereo not drawn) -2.1%
O=C(NCc1ccco1)c1ccc2c(c1)N(Cc1ccccc1)C(=O)c1ccccc1S2 -27.9%
COC(=O)c1ccc(CSc2c(C(C)C)cnc3c2c(=O)n(C)c(=O)n3C)cc1 -18.9%
CCOc1ccc(NC(=O)CCc2c(C)nc3cc(-c4ccccc4OC)nn3c2C)cc1 28.5%
Cc1ccc(NC(=O)c2sc3ncnc(N(C)C4CCCCC4)c3c2C)c(C)c1 -0.343%
O=C(c1ccc(CS(=O)(=O)c2ccc(Br)cc2)o1)N1CCN(c2ccc(F)cc2)CC1 30%
Cc1c(NC(=O)Nc2ccc(Cl)c(Cl)c2)sc2nc3n(c(=O)c12)CCC(C)CC3 (stereo not drawn) 14%
Cc1ccc(N(C)S(=O)(=O)c2ccc3[nH]c(=O)ccc3c2)cc1 6.41%
O=C(O)c1ccc(NS(=O)(=O)c2ccc(Cl)c(C(=O)Nc3ccccc3)c2)cc1 -11%
COc1ccc(NC(=O)c2cnn(-c3ccc(C)c(C)c3)c2C2CCNCC2)cc1OC -4.66%
O=C(Nc1nc2n(n1)C(c1ccc(F)cc1)C=C(c1ccc(Cl)cc1)N2)c1ccc([N+](=O)[O-])cc1 (stereo not drawn) -9.8%
N#C/C(=C\c1ccc(OCc2ccc(Cl)cc2Cl)cc1)c1nc2ccccc2[nH]1 -8.57%
Cc1oc2c(cc(NS(=O)(=O)c3ccc(C(C)C)cc3)c3ccccc32)c1C(=O)OCc1ccccc1 -3.46%
Cc1cccc(C2=Nc3ccccc3N=C(c3cc(Cl)ccc3O)C2)c1 -1.13%
CCCNC(=O)Cn1nc(-c2ccc(OC)cc2)c2cnc3ccc(F)cc3c21 0.635%
COc1ccc(OC)c(CNC(=O)c2cc3c(Cl)nc4ccccc4c3s2)c1 6.19%
Cc1cccc(NC(=O)/C(C#N)=C/c2ccco2)c1 38.4%
O=C(Nc1cccc(Br)c1)N1CCN2CCCCC2C1 (stereo not drawn) -14.4%
CCOc1ccc(-n2c(C)nc3cc(C(=O)NC4CCCC4)ccc32)cc1 -3.08%
CCOc1ccccc1NC(=O)c1c2c(nc3ccccc13)C(=O)N(C1CCCCC1)C2 -12.4%
COc1ccc(-c2nc3n(n2)C(c2ccccc2OC)C(C(=O)Nc2cccnc2)=C(C)N3)cc1 (stereo not drawn) -14.6%
O=C(Nc1cccc(Cl)c1)N1CC2CCCN2c2ccccc21 (stereo not drawn) -9.89%
O=C(C1CCC(CNS(=O)(=O)c2ccc(Br)s2)CC1)N1CCN(c2ccc(F)cc2)CC1 (stereo not drawn) 16.9%
CCc1ccccc1NC(=O)CC1NCCNC1=O (stereo not drawn) -6.5%
CCOc1ccc(C(=O)Nc2ccc3oc(-c4ccc(C)cc4C)nc3c2)cc1Br 1.86%
CCOc1ccc(NC(=O)Cn2c(=O)n(CCCCC(=O)NCCc3ccc(Cl)cc3)c(=O)c3ccccc32)cc1 -6.16%
CCC1CN(C(=O)N2CCC(C(=O)N3CCN(c4ccccc4)CC3)CC2)c2ccccc2O1 (stereo not drawn) -10.1%
COc1ccc(CNC(=O)c2ccc3c(c2)nc2n3CCCCC2)cc1 -8.76%
Cc1ccc(NS(=O)(=O)c2ccc3c(c2)N(C)C(=O)CC(=O)N3C)cc1Cl 20.1%
Cc1ccc(-n2c(=O)c3ccc(C(=O)NCc4ccco4)cc3n(CC(=O)Nc3ccc(C)c(F)c3)c2=O)cc1 -28.7%
O=S(=O)(NCC(c1cccs1)S(=O)(=O)c1ccccc1)c1ccccc1 (stereo not drawn) -9.4%
Nc1nnc(-c2cccc(Cl)c2Cl)c(N)n1 8.99% and -1.54%
CCOC(=O)N1CCc2c(sc(NCc3ccc(N(CC)CC)cc3)c2C(=O)Nc2cc(OC)ccc2OC)C1 -5.39%
CCOc1ccc(-n2c(SCC(=O)NCc3ccccc3)nc3n[nH]c(C)c3c2=N)cc1 0.942%
Cc1cc(C)n(C(C)CC(=O)Nc2ccc(Cl)cc2C)n1 (stereo not drawn) -8.95%
CC1Cc2cc(S(=O)(=O)CCC(=O)Nc3ccccc3F)ccc2N1C(=O)C1CC1 (stereo not drawn) 5.15%
COc1cccc(CN2C(=O)C3(SCC(=O)N3c3ccc(C)c(Cl)c3)c3ccccc32)c1 (stereo not drawn) 17.9%
CC[C@@]1(O)C(=O)OCc2c1cc1n(c2=O)Cc2cc3c(CN(C)C)c(O)ccc3nc2-1 24.9%
CCOC(=O)c1cc(-c2ccc(C)cc2)n(CCCC(=O)Nc2cc(C)ccc2C)c1 -3.77%
CCOc1ccccc1NS(=O)(=O)c1cc2[nH]c(=O)c(=O)[nH]c2cc1C -6.76%
COc1ccc(Cn2ccc3nc(C)c(C(=O)Nc4cc(OC)c(OC)c(OC)c4)cc3c2=O)cc1 0.345%
CCOc1ccc(Sc2cc(C(=O)NCc3ccc(C)cc3)c3ccccc3n2)cc1 -16%
COCCCn1c(=N)c(C(=O)NC2CCCC2)cc2c(=O)n3cccc(C)c3nc21 -3.81%
CCCCC(=O)N1CCc2cc(OC)c(OC)cc2C1COc1ccc(C(=O)OCC)cc1 (stereo not drawn) -18%
Cc1cccc(C(=O)n2nc(C)c(S(=O)(=O)N3CCOCC3)c2C)c1 20.1%
CCCCc1ccc(NC(=O)CSc2nc3ccccc3nc2N2CCCCC2)cc1 -5.35%
CCOC(=O)c1ccc(NC(=O)CS(=O)(=O)Cc2nc(-c3ccc(C)cc3)oc2C)cc1 -6.55%
CCCNC(=O)CCc1c(C)nc2nc(CNC(=O)c3ccccc3)nn2c1C -11%
COC(=O)c1c(-c2ccc(Cl)cc2)noc1N1CCN(c2ccc(C(C)=O)cc2)CC1 -5.55%
Cc1ccc(F)cc1NC(=O)CSc1nc(-c2cccs2)cc(C(F)(F)F)n1 5.63%
CCOc1ccc(NC(=O)C(CC)n2nc(C)c3c(C)n(-c4ccccc4)nc3c2=O)cc1 (stereo not drawn) -17.6%
COc1ccc(NC(=O)c2oc3ccccc3c2NC(=O)c2cc3ccccc3o2)c(OC)c1 -8.39%
Cc1ccc(NC(=O)CN2C(=O)CC(c3ccco3)Sc3ccccc32)cc1Cl (stereo not drawn) -44.4%
COc1cc(OC)cc(-n2c(=O)c3sccc3n(Cc3ccc(F)cc3)c2=O)c1 0.0212%
COc1cc(OC)c(NC(=O)Nc2ccc3c(c2)N(C)C(=O)c2ccccc2S3)cc1Cl -22.9%
Cc1ccc(-c2onc(C)c2C)cc1S(=O)(=O)N1CCN(c2ccccc2F)CC1 -14.4%
CCOc1ccccc1CNC(=O)c1ccc(-n2c(C)cc3c2CCC(C)C3)cc1 (stereo not drawn) -15.7%
COC(=O)c1ccccc1NC(=O)CCCn1nc(C)c2c(C)n(-c3ccccc3)nc2c1=O -12.1%
COc1cc(C(CC(=O)NCc2ccccc2Cl)N2Cc3ccccc3C2=O)cc(OC)c1OC (stereo not drawn) 3.46%
COc1cccc(NC(=O)CCNC(=O)Cn2cnc3ccccc3c2=O)c1 -3.11%
CCn1c2ccccc2c2cc(CN3CCN(Cc4cccc(Cl)c4)CC3)ccc21 -30.4%
Oc1cc(O)cc(/C=C/c2ccc(O)c(O)c2)c1 17.1%
COc1ccc(CCNC(=O)CN2C(=O)COc3ccc(S(=O)(=O)N4CCCC4)cc32)cc1OC -13.3%
Cc1ccc(Cl)cc1N1CCN(c2nc3ccccc3c3nc(-c4cccnc4)nn23)CC1 14.4%
